{"source": "PubChem BioAssay AID2546", "about": "(National Center for Advancing Translational Sciences (NCATS), 2010)", "note": "Hit rate of the full screen: of about 310,000 compounds, about 11,000 (3.5%) were called active. The inconclusive results got no clear call from the source; some entries with a clear call stand among them for comparison. The call rests on the fitted dose curve; in most records, active means well fitted inhibition curve with a large enough effect; inconclusive means small, poorly fitted or top-dose-only effect, or effect the other way; inactive means flat fitted curve, though single readings scatter. No potency is given beside an inconclusive call; the fits are too rough. Potency means the concentration at half of the fitted maximal effect; tags describe the fitted curve by direction and shape."}
{"assay": "VP16 counterscreen qHTS for inhibitors of ROR gamma transcriptional activity;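 further: Gal4-VP16 expression switched on by copper sulfate through the metallothionein promoter; nearly all actives have a fitted effect of over 50% in size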", "settings": "Drosophila S2 Gal4-VP16 UAS-luciferase, luminescence, 20 h; series mostly up to 53.6 µM"}
{"molecule": "CCOC(=O)C(=Cc1ccc(-n2ccnc2)cc1)C(=O)OCC", "Potency": "inconclusive [inhibitor, single point]"}
{"molecule": "COc1ccc2[nH]cc(/C=C/c3cc[n+](C)cc3)c2c1", "Potency": "inactive"}
{"molecule": "O=C(Cc1ccc(S(=O)(=O)N2CCCC2)s1)NC1CCCCCC1", "Potency": "inconclusive [inhibitor, single point]"}
{"molecule": "S=C(NCc1cccs1)Nc1cc(Cl)cc(Cl)c1", "Potency": "inconclusive [inhibitor, single point]"}
{"molecule": "COc1ccccc1CNc1cc(-c2cccnc2)ncn1", "Potency": "inactive"}
{"molecule": "O=C1/C(=C/c2ccccc2)Oc2cc(OC(=O)N3CCOCC3)ccc21", "Potency": "inconclusive [inhibitor, single point]"}
{"molecule": "O=C(Nc1nc(-c2ccc(F)c(F)c2)cs1)c1ccc(OCC2CCCO2)cc1", "note": "(stereo not given)", "Potency": "inactive"}
{"molecule": "Cc1nn(C)c(C(=O)NNC(=S)NC2CCCCC2)c1Br", "Potency": "inconclusive [inhibitor, single point]"}
{"molecule": "O=[N+]([O-])c1ccc(Sc2nnnn2-c2ccccc2)nc1", "Potency": "inconclusive [inhibitor, single point]"}
{"molecule": "CCN(CC)S(=O)(=O)c1ccc(C)c(NC(=S)NC2CCCCC2)c1", "Potency": "inconclusive [inhibitor, single point]"}
{"molecule": "COCc1ccc([C@@H]2C[C@H]3CN(Cc4ccccc4C)C(=O)[C@]34CCCN24)o1", "Potency": "inactive"}
{"molecule": "Cc1cc(C)cc(C(=O)Oc2cc(C)[nH]c(=O)c2[N+](=O)[O-])c1", "Potency": "inconclusive [inhibitor, single point]"}
{"molecule": "c1ccc(CN2CCN(c3nc(-c4ccccn4)nc4ccccc34)CC2)cc1", "Potency": "active: 2.82 µM"}
{"molecule": "N#C/C(=C\\c1cccnc1)C(=O)Nc1cccc2ccccc12", "Potency": "inconclusive [inhibitor, single point]"}
{"molecule": "Cc1ccccc1OCC(=O)N1N=C(C(F)(F)F)CC1(O)C(C)(C)C", "note": "(stereo not given)", "Potency": "inconclusive [inhibitor, single point]"}
{"molecule": "Cc1nc(Cl)c(C(=O)NCCc2ccccc2)c(C)c1[N+](=O)[O-]", "Potency": "inactive"}
{"molecule": "O=C1C(Cc2c[nH]c3ccccc23)NC(=S)N1C1CCCCC1", "note": "(stereo not given)", "Potency": "inconclusive [inhibitor, single point]"}
{"molecule": "Cc1ccc(NC(=S)Nc2cccc(-c3n[nH]c(=S)o3)c2)cc1", "Potency": "inconclusive [inhibitor, single point]"}
{"molecule": "CCc1nnc(NC(=O)CSc2nccn2-c2cc(C)cc(C)c2)s1", "Potency": "inconclusive [inhibitor, single point]"}
{"molecule": "CN(C)S(=O)(=O)c1cccc(NC(=S)Nc2ccc(Cl)cc2Cl)c1", "Potency": "inconclusive [inhibitor, single point]"}
{"molecule": "Cc1cc(Nc2ncc(Cl)cc2Cl)n[nH]1", "Potency": "inactive"}
{"molecule": "O=C(CCc1ccccc1)NCCSCc1c(F)cccc1Cl", "Potency": "active: 7.94 µM"}
{"molecule": "O=C(N/N=C/c1ccc(Br)o1)c1cc([N+](=O)[O-])cc([N+](=O)[O-])c1", "Potency": "active: 4.47 µM"}
{"molecule": "CCC(=O)Nc1cc(ON=C(C)C)cc([N+](=O)[O-])c1", "Potency": "inactive"}
{"molecule": "C(=N\\Nc1nc2ccccc2[nH]1)/c1ccccc1", "Potency": "inconclusive [inhibitor, single point]"}
{"molecule": "CCOC(=O)/C(=N\\Nc1ccccc1)S(=O)(=O)c1ccccc1", "Potency": "inconclusive [inhibitor, single point]"}
{"molecule": "O=C1c2ccccc2C(=O)c2c1ncn2-c1ccccc1", "Potency": "inconclusive [inhibitor, single point]"}
{"molecule": "N=C(N)c1ccc2cc(OC(=O)c3ccc(N=C(N)N)cc3)ccc2c1", "Potency": "inactive"}
{"molecule": "Cc1cc(C)c(C)c(S(=O)(=O)N2CCC(C(=O)Nc3ccc(S(=O)(=O)N4CCOCC4)cc3)CC2)c1C", "Potency": "inactive"}
{"molecule": "CS(=O)(=O)NC1CCN(Cc2ccccc2)CC1", "Potency": "inactive"}
{"molecule": "Cc1ccc(CNC(=O)C2CCC(=O)N(Cc3ccccc3F)C2)s1", "note": "(stereo not given)", "Potency": "inconclusive [inhibitor, single point]"}
{"molecule": "Cc1nc(-c2coc3cc(O)c(C)cc3c2=O)cs1", "Potency": "inconclusive [inhibitor, full curve, poor fit]"}
{"molecule": "COC(=O)Cn1c2c(c3cc(C)ccc31)CCCC2NC(C)c1ccccc1", "note": "(stereo not given)", "Potency": "inconclusive [inhibitor, single point]"}
{"molecule": "CCOc1cc(NC(=S)NCc2ccco2)c(OCC)cc1NC(=O)C1CC1", "Potency": "inconclusive [inhibitor, single point]"}
{"molecule": "Cc1cccc(CNc2ccnc(-c3cccc(C#N)c3)n2)c1", "Potency": "inconclusive [inhibitor, partial curve]"}
{"molecule": "ClC(Cl)(c1nnnn1-c1ccccc1)c1nnnn1-c1ccccc1", "Potency": "active: 5.01 µM"}
{"molecule": "COc1ccc(/C=N/Nc2nc(-c3ccc(C)cc3)c(C#N)c(=O)[nH]2)cc1", "Potency": "inconclusive [inhibitor, single point]"}
{"molecule": "CCNc1ncc2nc(-c3cn(C)c4ccccc34)c(=O)n(-c3ccc(OC)cc3)c2n1", "Potency": "inconclusive [inhibitor, single point]"}
{"molecule": "CCc1ccc(NC(=S)N(Cc2ccccc2)Cc2ccccn2)cc1", "Potency": "inconclusive [inhibitor, single point]"}
{"molecule": "COc1ccc(C(OCCN2CCC[C@@H](C(=O)O)C2)(c2ccc(OC)cc2)c2ccc(OC)cc2)cc1", "Potency": "inactive"}
{"molecule": "Cc1ccc(S(=O)(=O)N/N=C2/CC(c3ccccc3)Oc3ccccc32)cc1[N+](=O)[O-]", "note": "(stereo not given)", "Potency": "inconclusive [inhibitor, single point]"}
{"molecule": "Cc1cccc(NC(=S)N=Nc2c(O)n(C)c3ccc(S(=O)(=O)N4CCOCC4)cc23)c1", "Potency": "active: 0.708 µM"}
{"molecule": "COCCOC(=O)C1=C(C)N(c2ccccc2)C(=S)NC1c1ccccc1C(F)(F)F", "note": "(stereo not given)", "Potency": "inconclusive [inhibitor, single point]"}
{"molecule": "COc1ccc(C2Nc3ccccc3C(=O)N2c2ccccc2)cc1CN1CCOCC1", "note": "(stereo not given)", "Potency": "inconclusive [activator, single point]"}
{"molecule": "Cc1cccc(-n2nc([N+](=O)[O-])c(=NC3CCN(Cc4ccccc4)CC3)n2O)c1", "Potency": "inactive"}
